According to the supplement of paper PMC7826260:
The other results are listed elsewhere or left out. Viral Rep nickase domains cut single-stranded DNA in vitro at 3 µM enzyme and 37 °C for 1 h; the strands have 90 letters, of which the middle is given. The score is log2 (uncut reads / reads without enzyme); strong cutting gives strongly negative numbers. There is no active / inactive call. Because reads are shares of a total, they shift together; where an enzyme cuts many sequences, the uncut ones exceed 0.

What follows are sequences tested on T1, Rep nickase domain of tomato golden mosaic virus (assay: uncleaved DNA left, log2 of reads against the no-enzyme library (log2 ratio); higher = less cleavage (more negative = more Rep cleavage of the k-mer); sequences stand for … in CTCGTCCG…ACCGGAGA).
T1 sequence (Rep 1-124, printed without the tag): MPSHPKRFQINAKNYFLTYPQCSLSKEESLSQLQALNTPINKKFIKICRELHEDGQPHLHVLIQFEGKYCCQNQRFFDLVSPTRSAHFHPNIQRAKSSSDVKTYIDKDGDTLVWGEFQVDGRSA
Procedure: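 A pool of 90-nt single-stranded DNAs with seven random bases just before the constant AC of the nick site (name = the seven bases) was cut by 3 µM recombinant His6-SUMO-tagged Rep nickase domain (300 nM DNA, 50 mM HEPES pH 8.0, 50 mM NaCl, 1 mM MnCl2, 1 h, 37 °C, three replicates). Uncut DNA was amplified and sequenced.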

**Q.** Which “uncleaved DNA left (log2)” value does the source give for TTTATTC here?
**A.** The value was -0.131.

**Q.** Which “uncleaved DNA left (log2)” value does the source give for GCCGACC here?
**A.** Its value is 0.0265.

**Q.** How did the “uncleaved DNA left (log2)” value turn out when AGGAGGC was run?
**A.** The value was -0.0699.

**Q.** For AGCCCTA, which “uncleaved DNA left (log2)” value is on record?
**A.** Its value is 0.0462.

**Q.** CAGGTGA was tested. Which “uncleaved DNA left (log2)” value did it give?
**A.** The value was 0.14.

**Q.** For ATCTTTC, which “uncleaved DNA left (log2)” value is on record?
**A.** The value was 0.0134.

**Q.** For TACCCTC, which “uncleaved DNA left (log2)” value is on record?
**A.** Its value is -0.0776.

**Q.** With CGCCTCA as the sequence, how does the “uncleaved DNA left (log2)” value read?
**A.** The value was -0.0292.

**Q.** For AACCGGA, which “uncleaved DNA left (log2)” value is on record?
**A.** Its value is 0.0614.

**Q.** How did the “uncleaved DNA left (log2)” value turn out when GGATATC was run?
**A.** The value was 0.0632.

**Q.** How did the “uncleaved DNA left (log2)” value turn out when GCGTGGG was run?
**A.** Its value is 0.164.

**Q.** With GTCACGC as the sequence, how does the “uncleaved DNA left (log2)” value read?
**A.** Its value is 0.00776.

**Q.** Which “uncleaved DNA left (log2)” value does the source give for AGCAAAC here?
**A.** The value was -0.013.

**Q.** How did the “uncleaved DNA left (log2)” value turn out when CGCCACT was run?
**A.** The value was -0.109.

**Q.** How did the “uncleaved DNA left (log2)” value turn out when ACTCCGA was run?
**A.** The value was 0.00866.

**Q.** How did the “uncleaved DNA left (log2)” value turn out when CATGTTT was run?
**A.** Its value is 0.0448.

**Q.** TCTCATA was tested. Which “uncleaved DNA left (log2)” value did it give?
**A.** The value was -0.0403.

**Q.** Which “uncleaved DNA left (log2)” value does the source give for GCTAACC here?
**A.** Its value is -0.0111.

**Q.** For CGGGCGG, which “uncleaved DNA left (log2)” value is on record?
**A.** The value was 0.00708.

**Q.** For TCTGCGA, which “uncleaved DNA left (log2)” value is on record?
**A.** Its value is -0.104.

**Q.** Which “uncleaved DNA left (log2)” value does the source give for GGACATC here?
**A.** The value was -0.0422.

**Q.** How did the “uncleaved DNA left (log2)” value turn out when CGGCTAA was run?
**A.** The value was 0.14.

**Q.** Which “uncleaved DNA left (log2)” value does the source give for GATCATG here?
**A.** Its value is -0.117.

**Q.** GACCGCA was tested. Which “uncleaved DNA left (log2)” value did it give?
**A.** The value was 0.0518.

**Q.** For CATTGCC, which “uncleaved DNA left (log2)” value is on record?
**A.** Its value is -0.0231.

**Q.** For CCGGTTG, which “uncleaved DNA left (log2)” value is on record?
**A.** The value was -0.0753.

**Q.** How did the “uncleaved DNA left (log2)” value turn out when TGTCAAT was run?
**A.** The value was 0.126.

**Q.** With TTACAGC as the sequence, how does the “uncleaved DNA left (log2)” value read?
**A.** Its value is -0.278.

**Q.** GGAAGCC was tested. Which “uncleaved DNA left (log2)” value did it give?
**A.** Its value is -0.0681.

**Q.** With AGAAAAC as the sequence, how does the “uncleaved DNA left (log2)” value read?
**A.** The value was 0.00282.

**Q.** GACTTGT was tested. Which “uncleaved DNA left (log2)” value did it give?
**A.** The value was -0.0325.

**Q.** Which “uncleaved DNA left (log2)” value does the source give for CCGTAAC here?
**A.** Its value is 0.134.

**Q.** With AATATAT as the sequence, how does the “uncleaved DNA left (log2)” value read?
**A.** Its value is 0.0317.

**Q.** Which “uncleaved DNA left (log2)” value does the source give for ACCGATC here?
**A.** Its value is 0.185.

**Q.** Which “uncleaved DNA left (log2)” value does the source give for ATCCTTC here?
**A.** Its value is -0.167.

**Q.** For TGAAATC, which “uncleaved DNA left (log2)” value is on record?
**A.** Its value is 0.16.

**Q.** How did the “uncleaved DNA left (log2)” value turn out when CATGTGA was run?
**A.** Its value is -0.123.

**Q.** With GTCGACC as the sequence, how does the “uncleaved DNA left (log2)” value read?
**A.** Its value is 0.0519.

**Q.** How did the “uncleaved DNA left (log2)” value turn out when GCTGCGG was run?
**A.** The value was -0.162.

**Q.** ATCGTGC was tested. Which “uncleaved DNA left (log2)” value did it give?
**A.** The value was -0.0188.
